# This is one part of the list.
# Columns and labels:
# Assay in all cases: glycan array binding signal (z-score within array); higher = stronger binding
# Settings in all cases: glycan notation: IUPAC condensed, linker removed
# [1] = target: GlcNAc(b1-2)[GlcNAc(b1-4)]Man(a1-3)[GlcNAc(b1-2)Man(a1-6)]Man(b1-4)GlcNAc(b1-4)GlcNAc
# In short: (§1)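 Glycan array data came from 3228 arrays in the Consortium for Functional Glycomics database, and only arrays with an available protein sequence were kept. Glycan names were put into IUPAC-condensed notation, and columns mapping to the same glycan were averaged. The binding signal is a within-array Z-score, averaged across arrays of one protein sequence run at different concentrations or buffers and across linkers. A negative Z-score can be read as non-binding.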
# [2] = target: GlcNAc(b1-2)[GlcNAc(b1-4)]Man(a1-3)[GlcNAc(b1-4)][GlcNAc(b1-2)Man(a1-6)]Man(b1-4)GlcNAc(b1-4)GlcNAc
# In short: as §1
# [3] = target: GlcNAc(b1-2)[GlcNAc(b1-4)]Man(a1-3)[GlcNAc(b1-4)][GlcNAc(b1-2)[GlcNAc(b1-6)]Man(a1-6)]Man(b1-4)GlcNAc(b1-4)GlcNAc
# In short: as §1
# [4] = target: GlcNAc(b1-2)[GlcNAc(b1-4)]Man(a1-3)[GlcNAc(b1-4)][GlcNAc(b1-2)[GlcNAc(b1-6)]Man(a1-6)]Man(b1-4)GlcNAc(b1-4)[Fuc(a1-6)]GlcNAc
# In short: as §1
# [5] = target: GlcNAc(b1-2)[GlcNAc(b1-6)]Man(a1-6)[GlcNAc(b1-2)Man(a1-3)]Man(b1-4)GlcNAc(b1-4)GlcNAc
# In short: as §1
# [6] = target: GlcNAc(b1-2)[GlcNAc(b1-6)]Man(a1-6)[GlcNAc(b1-2)Man(a1-3)]Man(b1-4)GlcNAc(b1-4)[Fuc(a1-6)]GlcNAc
# In short: as §1
# [7] = target: GlcNAc(b1-2)[GlcNAc(b1-6)]Man(a1-6)[GlcNAc(b1-4)][GlcNAc(b1-2)Man(a1-3)]Man(b1-4)GlcNAc(b1-4)GlcNAc
# In short: as §1
# GlcNAc(b1-3)Fuc = target: GlcNAc(b1-3)Fuc
# In short: as §1
# GlcNAc(b1-3)Gal = target: GlcNAc(b1-3)Gal
# In short: as §1
# [8] = target: GlcNAc(b1-3)Gal(b1-3)GalNAc
# In short: as §1
# GlcNAc(b1-3)Gal(b1-4)Glc = target: GlcNAc(b1-3)Gal(b1-4)Glc
# In short: as §1
# [9] = target: GlcNAc(b1-3)Gal(b1-4)GlcNAc
# In short: as §1
# [10] = target: GlcNAc(b1-3)Gal(b1-4)GlcNAc(b1-2)Man(a1-3)[GlcNAc(b1-3)Gal(b1-4)GlcNAc(b1-2)Man(a1-6)]Man(b1-4)GlcNAc(b1-4)GlcNAc
# In short: as §1
# [11] = target: GlcNAc(b1-3)Gal(b1-4)GlcNAc(b1-2)Man(a1-3)[GlcNAc(b1-3)Gal(b1-4)GlcNAc(b1-2)Man(a1-6)]Man(b1-4)GlcNAc(b1-4)[Fuc(a1-6)]GlcNAc
# In short: as §1
# [12] = target: GlcNAc(b1-3)Gal(b1-4)GlcNAc(b1-2)[GlcNAc(b1-3)Gal(b1-4)GlcNAc(b1-6)]Man(a1-6)[GlcNAc(b1-3)Gal(b1-4)GlcNAc(b1-2)Man(a1-3)]Man(b1-4)GlcNAc(b1-4)GlcNAc
# In short: as §1
# [13] = target: GlcNAc(b1-3)Gal(b1-4)GlcNAc(b1-3)Gal(b1-4)GlcNAc
# In short: as §1
# [14] = target: GlcNAc(b1-3)Gal(b1-4)GlcNAc(b1-3)Gal(b1-4)GlcNAc(b1-2)Man(a1-3)[GlcNAc(b1-3)Gal(b1-4)GlcNAc(b1-3)Gal(b1-4)GlcNAc(b1-2)Man(a1-6)]Man(b1-4)GlcNAc(b1-4)GlcNAc
# In short: as §1
# [15] = target: GlcNAc(b1-3)Gal(b1-4)GlcNAc(b1-3)Gal(b1-4)GlcNAc(b1-2)Man(a1-3)[GlcNAc(b1-3)Gal(b1-4)GlcNAc(b1-3)Gal(b1-4)GlcNAc(b1-2)Man(a1-6)]Man(b1-4)GlcNAc(b1-4)[Fuc(a1-6)]GlcNAc
# In short: as §1
# [16] = target: GlcNAc(b1-3)Gal(b1-4)GlcNAc(b1-3)Gal(b1-4)GlcNAc(b1-2)[GlcNAc(b1-3)Gal(b1-4)GlcNAc(b1-3)Gal(b1-4)GlcNAc(b1-6)]Man(a1-6)[GlcNAc(b1-3)Gal(b1-4)GlcNAc(b1-3)Gal(b1-4)GlcNAc(b1-2)Man(a1-3)]Man(b1-4)GlcNAc(b1-4)[Fuc(a1-6)]GlcNAc
# In short: as §1
# [17] = target: GlcNAc(b1-3)Gal(b1-4)GlcNAc(b1-3)Gal(b1-4)GlcNAc(b1-3)Gal(b1-4)GlcNAc(b1-2)Man(a1-3)[GlcNAc(b1-3)Gal(b1-4)GlcNAc(b1-3)Gal(b1-4)GlcNAc(b1-3)Gal(b1-4)GlcNAc(b1-2)Man(a1-6)]Man(b1-4)GlcNAc(b1-4)GlcNAc
# In short: as §1
# [18] = target: GlcNAc(b1-3)Gal(b1-4)GlcNAc(b1-3)Gal(b1-4)GlcNAc(b1-3)Gal(b1-4)GlcNAc(b1-2)Man(a1-3)[GlcNAc(b1-3)Gal(b1-4)GlcNAc(b1-3)Gal(b1-4)GlcNAc(b1-3)Gal(b1-4)GlcNAc(b1-2)Man(a1-6)]Man(b1-4)GlcNAc(b1-4)[Fuc(a1-6)]GlcNAc
# In short: as §1
# [19] = target: GlcNAc(b1-3)Gal(b1-4)GlcNAc(b1-3)Gal(b1-4)GlcNAc(b1-3)Gal(b1-4)GlcNAc(b1-2)[GlcNAc(b1-3)Gal(b1-4)GlcNAc(b1-3)Gal(b1-4)GlcNAc(b1-3)Gal(b1-4)GlcNAc(b1-6)]Man(a1-6)[GlcNAc(b1-3)Gal(b1-4)GlcNAc(b1-3)Gal(b1-4)GlcNAc(b1-3)Gal(b1-4)GlcNAc(b1-2)Man(a1-3)]Man(b1-4)GlcNAc(b1-4)[Fuc(a1-6)]GlcNAc
# In short: as §1
# [20] = target: GlcNAc(b1-3)Gal(b1-4)GlcNAc(b1-3)Gal(b1-4)GlcNAc(b1-3)Gal(b1-4)GlcNAc(b1-3)Gal(b1-4)GlcNAc(b1-2)Man(a1-3)[GlcNAc(b1-3)Gal(b1-4)GlcNAc(b1-3)Gal(b1-4)GlcNAc(b1-3)Gal(b1-4)GlcNAc(b1-3)Gal(b1-4)GlcNAc(b1-2)Man(a1-6)]Man(b1-4)GlcNAc(b1-4)GlcNAc
# In short: as §1
# [21] = target: GlcNAc(b1-3)Gal(b1-4)GlcNAc(b1-3)Gal(b1-4)GlcNAc(b1-3)Gal(b1-4)GlcNAc(b1-3)Gal(b1-4)GlcNAc(b1-2)Man(a1-3)[GlcNAc(b1-3)Gal(b1-4)GlcNAc(b1-3)Gal(b1-4)GlcNAc(b1-3)Gal(b1-4)GlcNAc(b1-3)Gal(b1-4)GlcNAc(b1-2)Man(a1-6)]Man(b1-4)GlcNAc(b1-4)[Fuc(a1-6)]GlcNAc
# In short: as §1
# [22] = target: GlcNAc(b1-3)Gal(b1-4)GlcNAc(b1-3)Gal(b1-4)GlcNAc(b1-3)Gal(b1-4)GlcNAc(b1-3)Gal(b1-4)GlcNAc(b1-2)[GlcNAc(b1-3)Gal(b1-4)GlcNAc(b1-3)Gal(b1-4)GlcNAc(b1-3)Gal(b1-4)GlcNAc(b1-3)Gal(b1-4)GlcNAc(b1-6)]Man(a1-6)[GlcNAc(b1-3)Gal(b1-4)GlcNAc(b1-3)Gal(b1-4)GlcNAc(b1-3)Gal(b1-4)GlcNAc(b1-3)Gal(b1-4)GlcNAc(b1-2)Man(a1-3)]Man(b1-4)GlcNAc(b1-4)[Fuc(a1-6)]GlcNAc
# In short: as §1
# [23] = target: GlcNAc(b1-3)Gal(b1-4)GlcNAc(b1-3)Gal(b1-4)GlcNAc(b1-3)GalNAc
# In short: as §1
# [24] = target: GlcNAc(b1-3)Gal(b1-4)GlcNAc(b1-3)GalNAc
# In short: as §1
# [25] = target: GlcNAc(b1-3)Gal(b1-4)GlcNAc(b1-3)[GlcNAc(b1-3)Gal(b1-4)GlcNAc(b1-3)]GalNAc
# In short: as §1
# [26] = target: GlcNAc(b1-3)Gal(b1-4)GlcNAc(b1-6)[Gal(b1-3)]GalNAc
# In short: as §1
# [27] = target: GlcNAc(b1-3)Gal(b1-4)GlcNAc(b1-6)[GlcNAc(b1-3)Gal(b1-3)]GalNAc
# In short: as §1
# [28] = target: GlcNAc(b1-3)Gal(b1-4)GlcNAc(b1-6)[GlcNAc(b1-3)]Gal(b1-4)GlcNAc
# In short: as §1
# GlcNAc(b1-3)GalNAc = target: GlcNAc(b1-3)GalNAc
# In short: as §1
# GlcNAc(b1-3)Man = target: GlcNAc(b1-3)Man
# In short: as §1
# [29] = target: GlcNAc(b1-3)[GlcNAc(b1-4)][GlcNAc(b1-6)]GlcNAc
# In short: as §1
# [30] = target: GlcNAc(b1-3)[GlcNAc(b1-6)]Gal(b1-4)GlcNAc
# In short: as §1
# [31] = target: GlcNAc(b1-3)[GlcNAc(b1-6)]GalNAc
# In short: as §1
# [32] = target: GlcNAc(b1-3)[GlcNAc(b1-6)]GlcNAc
# In short: as §1
# [33] = target: GlcNAc(b1-4)Gal(b1-4)GlcNAc
# In short: as §1
# GlcNAc(b1-4)GlcNAc = target: GlcNAc(b1-4)GlcNAc
# In short: as §1
# [34] = target: GlcNAc(b1-4)GlcNAc(b1-4)GlcNAc
# In short: as §1
# [35] = target: GlcNAc(b1-4)GlcNAc(b1-4)GlcNAc(b1-4)GlcNAc(b1-4)GlcNAc
# In short: as §1
# [36] = target: GlcNAc(b1-4)GlcNAc(b1-4)GlcNAc(b1-4)GlcNAc(b1-4)GlcNAc(b1-4)GlcNAc
# In short: as §1
# [37] = target: GlcNAc(b1-4)[GlcNAc(b1-6)]GalNAc
# In short: as §1
# [38] = target: GlcNAc(b1-6)Gal(b1-4)GlcNAc
# In short: as §1
# GlcNAc(b1-6)GalNAc = target: GlcNAc(b1-6)GalNAc
# In short: as §1
binder,measurement,setting,value
"OVGAL11 (Ovis aries), AAF64320 (protein) MDSLPNPYLQSVSLTVCYMVKIKANLLSAFGKNPELQVDFGTGTGQGGNIPFRFWYCDGMVVMNTFTDGSWQKEEKVLTDAFVPGQPFELQFLVLEKEYQVFVKNKPICQFAHRLPLQSVKMLDVRGDIVLTSVDTL",glycan array binding signal (z-score),[1],-0.102
same,glycan array binding signal (z-score),[2],-0.05
same,glycan array binding signal (z-score),[3],-0.127
same,glycan array binding signal (z-score),[4],-0.055
same,glycan array binding signal (z-score),[5],-0.092
same,glycan array binding signal (z-score),[6],-0.102
same,glycan array binding signal (z-score),[7],-0.09
same,glycan array binding signal (z-score),GlcNAc(b1-3)Fuc,-0.084
same,glycan array binding signal (z-score),GlcNAc(b1-3)Gal,-0.248
same,glycan array binding signal (z-score),[8],-0.127
same,glycan array binding signal (z-score),GlcNAc(b1-3)Gal(b1-4)Glc,-0.08
same,glycan array binding signal (z-score),[9],-0.346
same,glycan array binding signal (z-score),[10],-0.084
same,glycan array binding signal (z-score),[11],-0.094
same,glycan array binding signal (z-score),[12],-0.045
same,glycan array binding signal (z-score),[13],-0.088
same,glycan array binding signal (z-score),[14],-0.05
same,glycan array binding signal (z-score),[15],-0.053
same,glycan array binding signal (z-score),[16],-0.029
same,glycan array binding signal (z-score),[17],-0.07
same,glycan array binding signal (z-score),[18],-0.053
same,glycan array binding signal (z-score),[19],-0.054
same,glycan array binding signal (z-score),[20],-0.11
same,glycan array binding signal (z-score),[21],-0.045
same,glycan array binding signal (z-score),[22],-0.055
same,glycan array binding signal (z-score),[23],-0.068
same,glycan array binding signal (z-score),[24],-0.046
same,glycan array binding signal (z-score),[25],-0.085
same,glycan array binding signal (z-score),[26],-0.089
same,glycan array binding signal (z-score),[27],-0.04
same,glycan array binding signal (z-score),[28],-0.102
same,glycan array binding signal (z-score),GlcNAc(b1-3)GalNAc,-0.147
same,glycan array binding signal (z-score),GlcNAc(b1-3)Man,-0.105
same,glycan array binding signal (z-score),[29],-0.138
same,glycan array binding signal (z-score),[30],-0.213
same,glycan array binding signal (z-score),[31],-0.084
same,glycan array binding signal (z-score),[32],-0.46
same,glycan array binding signal (z-score),[33],-0.305
same,glycan array binding signal (z-score),GlcNAc(b1-4)GlcNAc,-0.087
same,glycan array binding signal (z-score),[34],-0.164
same,glycan array binding signal (z-score),[35],-0.316
same,glycan array binding signal (z-score),[36],-0.251
same,glycan array binding signal (z-score),[37],-0.313
same,glycan array binding signal (z-score),[38],-0.185
same,glycan array binding signal (z-score),GlcNAc(b1-6)GalNAc,-0.159

# From the supplement of paper PMC8728848
